Earlier results, collected in US8329689B2 (priority 2006, dated 2012).

Columns and labels:
influenza virus = conditions: cited from earlier work
cellular line MDCK = conditions: cited from earlier work

For `CCOC(=O)c1c(CSc2ccccc2)n(C)c2cc(Br)c(O)c(CN(C)C)c12.Cl` [Arbidol, ethyl 6-bromo-4-[(dimethylamino)methyl]-5-hydroxy-1-methyl-2-(phenylthiomethyl)-1H-indole-3-carboxylate hydrochloride], the “selectivity index (SI50) for influenza virus” value (influenza virus) is given as 2.69 and the TC50 (cellular line MDCK) is given as 62.5 µg/mL.
